Reference: PMC7819943, “Rice protein-binding microarrays: a tool to detect cis-acting elements near promoter regions in rice”
The list shows a part of the results.

These sequences were tested against T1, OsWOX13 (Oryza sativa, UniProt Q5QMM3 1-267) (assay: protein-binding microarray (RPBM); PBS, 2% BSA, 51.3 ng/ul salmon testes DNA, 50 uM zinc acetate, 200 nM TF, 25 C, 1 h; high values mean tight binding). Details: protein: recombinant; tags: N-terminal polyhistidine and DsRed monomer fusion (pET32a); label: CyDye5-dUTP incorporated in the synthesized complementary strand; 3' TTTTT single-stranded linker to array surface; dsDNA, one strand shown.
T1 sequence: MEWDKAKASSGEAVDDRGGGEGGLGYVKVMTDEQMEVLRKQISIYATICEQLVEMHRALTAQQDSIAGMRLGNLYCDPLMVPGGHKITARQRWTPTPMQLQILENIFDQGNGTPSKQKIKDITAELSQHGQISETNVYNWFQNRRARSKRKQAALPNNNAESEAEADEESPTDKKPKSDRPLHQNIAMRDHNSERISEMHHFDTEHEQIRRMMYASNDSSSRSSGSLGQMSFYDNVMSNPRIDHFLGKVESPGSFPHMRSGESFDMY
In short: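 For the binding signal, per-feature fluorescence intensity was read in arbitrary units on an Axon 4000B scanner. Before scanning, a 2% BSA-blocked custom Agilent array made double-stranded with Cy5-dUTP was washed after 1 h at 25 °C with 200 nM protein and 50 µM zinc acetate. The proteins were Ni–NTA-purified transcription factors with N-terminal polyhistidine and DsRed fusions, expressed in E. coli BL21-CodonPlus.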

**Q.** For “ACAAATTAAAGTAACAATCTGGACCGTTGATTATACGTGGCGGAGTCACCTAGTGCAG”, which binding signal is on record?
**A.** 21800 fluorescence intensity (a.u.)

**Q.** For “ATTTATTAATATTAATATTATTGTGGGAAATTTTAGAATGCGGAGTCACCTAGTGCAG”, which binding signal is on record?
**A.** 3460 fluorescence intensity (a.u.)

**Q.** Which binding signal does the source give for “CGGCTAATTAATTTATATTTCTATATGTATTGACCCTGTTCGGAGTCACCTAGTGCAG” here?
**A.** 61100 fluorescence intensity (a.u.)

**Q.** With “GTGATTATTTCGACAGTGTTCATATTGTTTATCCCCTATTCGGAGTCACCTAGTGCAG” as the sequence, how does the binding signal read?
**A.** 8610 fluorescence intensity (a.u.)

**Q.** “TTAAATTTGGATGATAATTATAATCGAAAAGATGAGGAGGCGGAGTCACCTAGTGCAG” was tested. Which binding signal did it give?
**A.** 39000 fluorescence intensity (a.u.)

**Q.** With “TGCAAATCACGCCCAAATTGCCCAAGTTATTGGTCGCCGACGGAGTCACCTAGTGCAG” as the sequence, how does the binding signal read?
**A.** 17000 fluorescence intensity (a.u.)

**Q.** “GACTTGATAATTACCTTATTCTGTGTTCTGTGATAGCCTTCGGAGTCACCTAGTGCAG” was tested. Which binding signal did it give?
**A.** 12200 fluorescence intensity (a.u.)

**Q.** Which binding signal does the source give for “AAGTTAGATTATAATGATATAATATATATACTATACAAATCGGAGTCACCTAGTGCAG” here?
**A.** 6480 fluorescence intensity (a.u.)

**Q.** With “TGGAATTATGGCAAACTAATGTGTAATTCTTACCTGTAACCGGAGTCACCTAGTGCAG” as the sequence, how does the binding signal read?
**A.** 3390 fluorescence intensity (a.u.)

**Q.** For “GTAGGCTCCAGTACATCAATCAGCCCCTTGTTACCACCACCGGAGTCACCTAGTGCAG”, which binding signal is on record?
**A.** 4100 fluorescence intensity (a.u.)

**Q.** “GACTAATTAAATAAAATGTTGAAATCATTATAAGGAAGAACGGAGTCACCTAGTGCAG” was tested. Which binding signal did it give?
**A.** 28100 fluorescence intensity (a.u.)

**Q.** “CAAATAAATTATTCACTTATTATCCTCTCCCACCTGGTTCCGGAGTCACCTAGTGCAG” was tested. Which binding signal did it give?
**A.** 22100 fluorescence intensity (a.u.)

**Q.** Which binding signal does the source give for “TCGAAATGGAATTTTCAGTTTCAGACGAGATTCCGGAGACCGGAGTCACCTAGTGCAG” here?
**A.** 3160 fluorescence intensity (a.u.)

**Q.** “TTTGAAGATTTAATTGTAACGAATTTAATGGTGCAATCGGCGGAGTCACCTAGTGCAG” was tested. Which binding signal did it give?
**A.** 20800 fluorescence intensity (a.u.)

**Q.** With “TGCTACTCTACACAAATGATTGTTCCAATTTAAATAATCACGGAGTCACCTAGTGCAG” as the sequence, how does the binding signal read?
**A.** 5480 fluorescence intensity (a.u.)

**Q.** For “TGCACTTTAATTAAACCCACCTAAAATTTCATAATCCACACGGAGTCACCTAGTGCAG”, which binding signal is on record?
**A.** 5370 fluorescence intensity (a.u.)

**Q.** “TGTTTGATTTCATCCCGATTAATTACTAGTTTTCGGAATGCGGAGTCACCTAGTGCAG” was tested. Which binding signal did it give?
**A.** 18100 fluorescence intensity (a.u.)

**Q.** For “AACGCAAATTAATGAATGTGCAAGCGTATGTGTACATGGCCGGAGTCACCTAGTGCAG”, which binding signal is on record?
**A.** 14800 fluorescence intensity (a.u.)

**Q.** How did the binding signal turn out when “ATTGAGACATGCAATCATCCTCTCTTTATTTCTACTGCTACGGAGTCACCTAGTGCAG” was run?
**A.** 3920 fluorescence intensity (a.u.)

**Q.** “TAAATTTTGACTGATAAGTATAAGTATAAGCGAAAAGATTCGGAGTCACCTAGTGCAG” was tested. Which binding signal did it give?
**A.** 12400 fluorescence intensity (a.u.)

**Q.** Which binding signal does the source give for “GATATGATATTGACACATGATATGTAATTATATATAGAGCCGGAGTCACCTAGTGCAG” here?
**A.** 11400 fluorescence intensity (a.u.)

**Q.** How did the binding signal turn out when “TAAATCATGGTGAAATTAGATTTAAAAGATTCATCTTGTACGGAGTCACCTAGTGCAG” was run?
**A.** 7440 fluorescence intensity (a.u.)

**Q.** Which binding signal does the source give for “TACGAGTCAATTTATTCCGAAATAATATTGTCGTTAGAGTCGGAGTCACCTAGTGCAG” here?
**A.** 5640 fluorescence intensity (a.u.)

**Q.** For “CGCCGCACAAATTAATTACACCTCGTAAACACAAATTAAGCGGAGTCACCTAGTGCAG”, which binding signal is on record?
**A.** 18600 fluorescence intensity (a.u.)

**Q.** Which binding signal does the source give for “TAATACTTAATTAATTATATGCTAAATGCTTCTTCGTTTTCGGAGTCACCTAGTGCAG” here?
**A.** 27300 fluorescence intensity (a.u.)

**Q.** Which binding signal does the source give for “TTTATAATAGTTAATATTTAATTGATCATTTGCTAATGAGCGGAGTCACCTAGTGCAG” here?
**A.** 24900 fluorescence intensity (a.u.)

**Q.** Which binding signal does the source give for “TACACTGATTAGTGGATGATGATATAGTATCTTTGTATGTCGGAGTCACCTAGTGCAG” here?
**A.** 45600 fluorescence intensity (a.u.)

**Q.** “TCCAGTCCAATCAGCCCACCATAATTTGGGCCGGAATAAGCGGAGTCACCTAGTGCAG” was tested. Which binding signal did it give?
**A.** 17600 fluorescence intensity (a.u.)

**Q.** Which binding signal does the source give for “ATATGTGATGGGCAATAAAGTTACTTTGACGATGGTATGCCGGAGTCACCTAGTGCAG” here?
**A.** 7840 fluorescence intensity (a.u.)

**Q.** Which binding signal does the source give for “TTGGTAATTTTCGACTGATACTGCTCTTATTATATTCGTTCGGAGTCACCTAGTGCAG” here?
**A.** 5090 fluorescence intensity (a.u.)

**Q.** With “CCCTTTACTTGATTTTCTGCTGGTTGGTTTATCTTTTATTCGGAGTCACCTAGTGCAG” as the sequence, how does the binding signal read?
**A.** 6590 fluorescence intensity (a.u.)

**Q.** Which binding signal does the source give for “CCCGACGTTGTTGATTGCTTATCCCACTTGTGCTATTTGCCGGAGTCACCTAGTGCAG” here?
**A.** 18600 fluorescence intensity (a.u.)

**Q.** “CATGATTTTGAATGCATAACCTAAACATATAGCAAACCAGCGGAGTCACCTAGTGCAG” was tested. Which binding signal did it give?
**A.** 17100 fluorescence intensity (a.u.)

**Q.** For “ACGCCGAAAATCACTGTCATAATTAATTTGAGAACTAGAACGGAGTCACCTAGTGCAG”, which binding signal is on record?
**A.** 18500 fluorescence intensity (a.u.)

**Q.** “CCAATAAAATTTCTATTAAACTGAGAGAAATGCTACCCTTCGGAGTCACCTAGTGCAG” was tested. Which binding signal did it give?
**A.** 3510 fluorescence intensity (a.u.)

**Q.** Which binding signal does the source give for “TTCAAATGGAGAACTGACGAACTTGTAATATGACGTCAGTCGGAGTCACCTAGTGCAG” here?
**A.** 4330 fluorescence intensity (a.u.)

**Q.** Which binding signal does the source give for “CTGATTGGAAATATTTTGAAATTAACTACACACAAAATAACGGAGTCACCTAGTGCAG” here?
**A.** 9930 fluorescence intensity (a.u.)

**Q.** Which binding signal does the source give for “ACCAATCACAGGCCACAGCCGGCGCCGTCGCCTTCCTTCTCGGAGTCACCTAGTGCAG” here?
**A.** 3920 fluorescence intensity (a.u.)

**Q.** How did the binding signal turn out when “ATATTTCGTCAAGTTAAATTTGAGTGAGAACAAAATCCAACGGAGTCACCTAGTGCAG” was run?
**A.** 3410 fluorescence intensity (a.u.)

**Q.** Which binding signal does the source give for “CTCTTAATTTAGGGGTGGCTCATCATCTCTCTCCTCACTTCGGAGTCACCTAGTGCAG” here?
**A.** 12400 fluorescence intensity (a.u.)

**Q.** “GCCGCCAAATCAAATGTGGATGATTGAAATAGCCGTGGTACGGAGTCACCTAGTGCAG” was tested. Which binding signal did it give?
**A.** 32500 fluorescence intensity (a.u.)

**Q.** How did the binding signal turn out when “CCGATATGATTTTAGGTCCCCGCCCAAGTGCACATATATGCGGAGTCACCTAGTGCAG” was run?
**A.** 3190 fluorescence intensity (a.u.)

**Q.** “ATTGTAATTAATACATGACTACATATGTTTCTATATGCATCGGAGTCACCTAGTGCAG” was tested. Which binding signal did it give?
**A.** 28200 fluorescence intensity (a.u.)

**Q.** How did the binding signal turn out when “TAATATTATATTTAATTTGCATTATTTTAAATATAGTACCCGGAGTCACCTAGTGCAG” was run?
**A.** 3730 fluorescence intensity (a.u.)

**Q.** With “TAATTAATAATCTAGTTAATTAGCCGTCTCCGGAACAAATCGGAGTCACCTAGTGCAG” as the sequence, how does the binding signal read?
**A.** 13300 fluorescence intensity (a.u.)

**Q.** For “CTTTAATTTCTTCTTCTTTTCCACATATAATAATAATATACGGAGTCACCTAGTGCAG”, which binding signal is on record?
**A.** 4030 fluorescence intensity (a.u.)

**Q.** “GCAAGATTGGACGGTCCAGATCTCTAAAGTACGTCAGCACCGGAGTCACCTAGTGCAG” was tested. Which binding signal did it give?
**A.** 20500 fluorescence intensity (a.u.)

**Q.** For “GAGGTAAATTTGATCAGGCATCTTCTTGCATTGGTAGCAACGGAGTCACCTAGTGCAG”, which binding signal is on record?
**A.** 7700 fluorescence intensity (a.u.)

**Q.** Which binding signal does the source give for “CAGAAATTGTTTTCATTTATTTTATTGTCTTTATATGACTCGGAGTCACCTAGTGCAG” here?
**A.** 11300 fluorescence intensity (a.u.)

**Q.** Which binding signal does the source give for “ATATCAATCCGATGATATTAATTTTAGCAAATAAAATTTACGGAGTCACCTAGTGCAG” here?
**A.** 5130 fluorescence intensity (a.u.)

**Q.** How did the binding signal turn out when “ACTAATGATGGATTAATTAGGCTTAATATATTCATCTCGCCGGAGTCACCTAGTGCAG” was run?
**A.** 58100 fluorescence intensity (a.u.)

**Q.** With “GTAAGTTACAGTAATTACATTATGATTGTACTATAATTACCGGAGTCACCTAGTGCAG” as the sequence, how does the binding signal read?
**A.** 25900 fluorescence intensity (a.u.)

**Q.** For “ATAGATTTAACACTAAATTTATCACAAAACTACAAATTTACGGAGTCACCTAGTGCAG”, which binding signal is on record?
**A.** 7720 fluorescence intensity (a.u.)

**Q.** For “CCTATATTTATATTGATGTTAATGAATCTAGACATATATACGGAGTCACCTAGTGCAG”, which binding signal is on record?
**A.** 3560 fluorescence intensity (a.u.)
